Test results taken from patent publication US7871610B2, “Antibodies to Tie1 ectodomain” (Dyax Corp., priority 2003, dated 2011).

Tests used:
HUVEC = experiment: Tube formation assay with HUVEC in collagen gel; assay type: cell-based, human; settings: collagen I gel; E3 active even at 10 ng/ml (tested 1 ng/ml to 10 μg/ml); E3b-IgG1 tested 1 pg/ml to 10 ng/ml
Procedure: Human Umbilical vein endothelial cells (HUVEC) were obtained by treating fresh human umbilical cord veins with Trypsin-EDTA (1×) (Gibco/Invitrogen) for 20-25 minutes at 37° C. The cells were cultured in a T-25 flask coated with attachment factor (AF), (Cascade Biologics) in RPMI 1640 medium supplemented with 10% FCS, 0.4% BBE, 1% 1-glutamin, 1% penicillin/streptomycin. Primary cultures were detached with warm Trypsin-EDTA and used when confluent at the second or third passage. The cells were maintained in a proliferative state by culturing them in a split ratio 1:2 at an approximate density of the monolayer of about 60-80%. […]
After 2 passages HUVECs were seeded in their culture medium (40.10^3/50 μl/well of a 96-well plate) on a collagen gel (50 μl of collagen I 1.5 mg/ml) prepared by mixing 7.5 volumes of 2 mg/ml collagen (Collagen R; Serva, Heidelberg, Germany), 1 volume of 10×MEM, 1.5 volume of NaHCO3 (15.6 mg/ml) and ˜1 volume of NaOH to adjust the pH to 7.4. […] The total length of the tube network on the culture surface was quantified at ×40 magnification by the METAVUE™ Software (Universal Imaging Corporation). Results from triplicate wells were expressed as mean vessel area per field ±SEM (relative units). […]
Germlined E3 and its parental antibody were evaluated in the tube formation assay in a collagen type-I matrix. […]

[1] = system: SW-480 (colorectal cancer) cells; experiment: SW-480 colorectal cancer xenograft in nu/nu mice; assay type: in vivo, mouse; settings: for Tumor Weight: average per group
Procedure: Mice (nu/nu) were implanted subcutaneously with 5×10^6 SW-480 (colorectal cancer) cells. After 12 days, when tumors reached approximately 100-200 mg, the mice were separated into 5 groups and treated with the following agents (or left untreated): • 1—Untreated • 2—Vehicle (PBS) • 3—Cisplatin (4 mg/kg/, IV, q2d×5 times) • 4—A2-SV (negative control antibody @ 10 mg/kg, IP, q2d×14 times) • 5—DX-2220 (anti-Tie-1 antibody @ 10 mg/kg, IP, q2d×14 times)
Throughout the study, the length (L) and width (W) of any tumors that developed were measured in millimeters using calibrated vernier calipers, where L is the longer of the two dimensions. When applicable, tumor weight (M) in milligrams was calculated by using the formula associated with a prolate ellipsoid: M=(L×W^2)/2. […] A2-SV is an isotype matched (IgG1) negative control antibody that binds strepavidin.

B1: DX-2220: full length, IgG1, germlined human anti-Tie1 antibody E3b; LC SEQ ID NO:700, HC SEQ ID NO:701 (antibody)
heavy: EVQLLESGGGLVQPGGSLRLSCAASGFTFSMYGMVWVRQAPGKGLEWVSVISPSGGNTGYADSVKGRFTISRDNSKNTLYLQMNSLRAEDTAVYYCARAPRGYSYGYYYWGQGTLVTVSS[left out - human IgG1 constant region]
light: DIQMTQSPSSLSASVGDRVTITCRASQGIGHYLAWYQQKPGKVPKLLIYTASTLQSGVPSRFSGSGSGTDFTLTISSLQPEDVATYYCQQFNSYPHTFGQGTRLEIKRTVAAPSVFIFPPSDEQLKSGTASVVCLLNNFYPREAKVQWKVDNALQSGNSQESVTEQDSKDSTYSLSSTLTLSKADYEKHKVYACEVTHQGLSSPVTKSFNRGEC
modifications: Antibody
With B1 the “tube formation by HUVECs” value (HUVEC) was “inhibits tube formation”, the “efficacy compared with cisplatin” value ([1]; DX-2220 10 mg/kg IP q2d×14, cisplatin 4 mg/kg IV q2d×5) was “as efficacious as the chemotherapeutic control” and the “Tumor Weight” value ([1]; 5 days after cell injection (before treatment start at day 12)) was 112 mg. The “Tumor Weight” value ([1]; 9 days after cell injection (before treatment start at day 12)) was 137 mg, the “Tumor Weight” value ([1]; 12 days after cell injection (treatment start)) was 139 mg and the “Tumor Weight” value ([1]; 15 days after cell injection) was 145 mg. For the same molecule, the “Tumor Weight” value ([1]; 19 days after cell injection) was 186 mg, the “Tumor Weight” value ([1]; 22 days after cell injection) was 224 mg and the “Tumor Weight” value ([1]; 26 days after cell injection) was 292 mg. For the same molecule, the “Tumor Weight” value ([1]; 28 days after cell injection) was 328 mg.
